According to paper PMC4336329 (PLoS ONE, 2015):
Among all 310,000 compounds or so, about 14,000 (4.5%) showed an effect of 50% or more. The effect is printed as a negative number. The list shows a part of the results.

Biological target: human ether-à-go-go-related gene (hERG) potassium channel (human, UniProt Q12809)
Experiment: primary screen, population patch clamp on CHO cells stably expressing hERG
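Note: peak tail current of the secondary pulse compared with the same well before compound.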

Chain of human ether-à-go-go-related gene (hERG) potassium channel (Q12809 whole entry, looked up): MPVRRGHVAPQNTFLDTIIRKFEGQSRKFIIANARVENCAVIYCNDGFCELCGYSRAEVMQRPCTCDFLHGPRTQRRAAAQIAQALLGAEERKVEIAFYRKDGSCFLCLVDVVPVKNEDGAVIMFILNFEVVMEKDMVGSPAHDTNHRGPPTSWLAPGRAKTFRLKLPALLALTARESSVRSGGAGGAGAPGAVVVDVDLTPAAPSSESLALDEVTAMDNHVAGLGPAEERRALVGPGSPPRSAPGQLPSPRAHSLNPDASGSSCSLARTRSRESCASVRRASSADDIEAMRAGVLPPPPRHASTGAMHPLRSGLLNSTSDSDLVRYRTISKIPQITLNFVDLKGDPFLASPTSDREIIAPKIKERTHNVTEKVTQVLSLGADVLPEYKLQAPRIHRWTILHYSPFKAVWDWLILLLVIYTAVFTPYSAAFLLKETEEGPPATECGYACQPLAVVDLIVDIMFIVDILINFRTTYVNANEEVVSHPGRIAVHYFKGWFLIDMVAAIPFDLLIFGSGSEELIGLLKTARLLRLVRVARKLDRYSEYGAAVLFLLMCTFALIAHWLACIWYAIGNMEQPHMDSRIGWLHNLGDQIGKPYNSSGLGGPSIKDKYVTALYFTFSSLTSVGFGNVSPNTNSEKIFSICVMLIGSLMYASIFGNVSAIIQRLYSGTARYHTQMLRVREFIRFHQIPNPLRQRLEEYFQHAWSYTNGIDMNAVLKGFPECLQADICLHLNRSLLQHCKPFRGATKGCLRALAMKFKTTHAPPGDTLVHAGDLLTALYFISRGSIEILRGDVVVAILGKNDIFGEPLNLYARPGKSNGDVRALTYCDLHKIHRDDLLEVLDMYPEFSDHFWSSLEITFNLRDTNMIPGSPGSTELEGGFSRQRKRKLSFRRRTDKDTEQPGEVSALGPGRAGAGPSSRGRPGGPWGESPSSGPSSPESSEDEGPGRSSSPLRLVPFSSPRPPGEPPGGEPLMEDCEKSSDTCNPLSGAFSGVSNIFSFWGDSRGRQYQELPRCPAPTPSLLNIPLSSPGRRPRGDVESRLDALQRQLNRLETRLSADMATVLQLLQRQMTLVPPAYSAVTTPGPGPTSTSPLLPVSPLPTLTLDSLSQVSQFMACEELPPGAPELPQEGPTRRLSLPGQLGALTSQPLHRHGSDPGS

| Compound | hERG current change (%, negative = inhibition) at 10uM [%] |
| --- | --- |
| C=C(C)c1cccc(C(C)(C)NC(=O)N(Cc2ccccc2)Cc2ccco2)c1 | 6.19 |
| Cc1ccc(Cn2ccc(NC(=O)c3cc(-c4ccccc4)on3)n2)cc1 | 5.75 |
| COc1c2ccoc2c(OC[C@@H](O)C(C)(C)OC)c2oc(=O)ccc12 | 10.6 |
| CCN1C(=O)S/C(=C/c2c(OCc3ccc(C(=O)O)cc3)ccc3ccccc23)C1=O | 8.07 |
| Cc1cc(OCC(=O)NCCc2c[nH]c3ccccc23)c2c(C)cc(=O)oc2c1 | 9.39 |
| COC(=O)c1sccc1NC(=O)/C=C/C(=O)O | 16.1 |
| COc1ccccc1CNC(=O)c1cc2ccccc2oc1=O | 0.373 |
| Cc1ccc(S(=O)(=O)n2cnc(C)c2)cc1 | 0.762 |
| CCOC(=O)c1c(NC(=O)CSc2nnnn2-c2ccc(OC)cc2)sc(C)c1C | 12.9 |
| O=C(COC(=O)c1ccccn1)Nc1cccc(Cl)c1 | 13.9 |
| COc1ccc(NS(=O)(=O)c2ccc(NC(C)=O)cc2)c(OC)c1 | 0.195 |
| O=C(NCc1ccccc1)C1=C[C@H](c2ccc(Br)cc2)C[C@H](OCCCCO)O1 | -9.7 |
| CCc1ccccc1NC(=S)N(CCN1CCCCCC1)Cc1ccco1 | -46.8 |
| CCOc1ccc(N2C(=O)CC(Sc3nc(C)cc(C)n3)C2=O)cc1 (stereo not shown) | -6.96 |
| CC(C)Cc1nc2n[nH]c(N)c2c2c1CCC2 | -3.89 |
| N#Cc1ccc(OCC(=O)OCC(=O)Nc2cc(C(F)(F)F)ccc2N2CCOCC2)cc1 | -57.7 |
| CC(OC(=O)c1ccc(Cl)nc1)C(=O)NC1CCCC1 (stereo not shown) | 12.2 |
| N#Cc1c(NC(=O)C2CC(c3c(F)cccc3Cl)=NO2)sc2c1CCC2 (stereo not shown) | -17.2 |
| COc1ccc(NC(=O)Nc2cccc(Cl)c2Cl)c(OC)n1 | 3.16 |
| C#CC[N+](C)(C)CCCCCCCCCCCC.[Br-] | -50.7 |

| Compound | hERG current change (%, negative = inhibition) at 10uM [%] |
| --- | --- |
| O=C(O)c1ccc(N2N=C(c3ccccc3)CC2c2ccccc2)cc1 (stereo not shown) | 28 |
| O=C(N/N=C\c1c(F)c(F)c(F)c(F)c1F)c1ccc(-c2ccccc2)cc1 | 5.34 |
| COc1ccc(NC(=O)C2CCN(C(=O)[C@@H]3Cc4ccccc4CN3C(=O)OC(C)(C)C)CC2)cc1 | 2.02 |
| C[C@@]12C(=O)OC(=O)[C@]1(C)C1CCC2O1 | 14.1 |
| O=C(CN1CCCCCC1)Nc1ccc(S(=O)(=O)N2CCOCC2)cc1 | 11.9 |
| COc1ccc(CCNC(=O)COc2ccc(-c3ccccc3)cc2)cc1OC | -16.8 |
| Cc1cccnc1NC(=O)C1CCN(S(=O)(=O)c2c(C)noc2/C=C/c2ccco2)CC1 | -8.08 |
| CSc1sc(C(=O)NC(=O)NCc2ccncc2)c(C)c1-c1ccon1 | -15.8 |
| Cc1cc(Br)ccc1NC(=O)CN(C)C(=O)CN1C(=O)NC2(CCCC2)C1=O | 15.2 |
| Cc1ccc(C(=O)NC(C)c2ccncc2)o1 (stereo not shown) | 13.2 |
| O=C(CCCc1nc(-c2ccccc2Cl)no1)NCc1cccnc1 | -2.1 |
| O=S(=O)(NC1=NCCCCC1)c1ccc2ccccc2c1 | 1.99 |
| COc1cccc(C(=O)Nc2ccccc2C(=O)NC2CC2)c1 | 0.677 |
| O=C(NCCCN1CCOCC1)c1cc(-c2ccccc2)on1 | -15.1 |
| O=C(c1ccc2nc3ccc(Cl)cc3c(=O)n2c1)N1CCOCC1 | -55.3 |
| O=C(Oc1ccc(Cl)c2ccccc12)N1CCCCC1 | 13.5 |
| COc1ccc(-n2c(/C=C/c3ccc(O)cc3)nc3ccccc3c2=O)cc1 | -21.6 |
| c1ccc2sc(NN=C3CCCC3)nc2c1 | 17.4 |
| Cc1c(C(=O)CN2CCN(c3ccccc3)CC2)c2ccccc2n1C | -2.34 |
| COc1ccc(C(=O)C(C)Sc2nnc(C3CC3)n2C2CC2)cc1 (stereo not shown) | -6.3 |

| Compound | hERG current change (%, negative = inhibition) at 10uM [%] |
| --- | --- |
| CN(CC(=O)NCc1cccc(F)c1)C(=O)c1ccco1 | 0.0537 |
| C=CCNC(=S)NNC(=O)C(CCC(C)C)CC(C)(C)O (stereo not shown) | -5.72 |
| Cc1sc2nc(CSCC(=O)Nc3ccc(OC(F)F)cc3)[nH]c(=O)c2c1C | -42.8 |
| O=C(Nc1ccccc1Cl)c1ccccc1Cc1ccccc1 | 13.4 |
| CC(C)c1ccc(S(=O)(=O)N2CCN(C(=O)c3ccncc3)CC2)cc1 | -22.8 |
| O=C(c1ccncc1)N(Cc1ccco1)Cc1cc2ccccc2[nH]c1=O | -43.5 |
| Cc1cccc(OCCNc2cc(N3CCN(CCO)CC3)ccc2[N+](=O)[O-])c1.Cl | -20.9 |
| O=C(Cn1cc([N+](=O)[O-])cn1)NCc1ccc(-n2cccn2)cc1 | -19.7 |
| COCCCN(CCCN)Cc1ccco1 | 7.11 |
| CN(C)c1nc2n(c(=S)n1)CCS2 | 0.578 |
| CCn1c(SCC(=O)N/N=C/c2ccc(C)o2)nnc1-c1ccc(C(C)(C)C)cc1 | -30.6 |
| Cc1cc(C)c(NC(=O)CO/N=C2\CCCc3nonc32)c(C)c1 | 9.13 |
| Cc1cc(C)cc(NC(=S)N2C3CCCC2CC(NC(=O)C2CC2)C3)c1 (stereo not shown) | -21.7 |
| CSc1nnnn1-c1ccc(C(=O)OCC(=O)N2CCOCC2)cc1 | 8.71 |
| Cc1ccc(S(=O)(=O)NCCC(=O)OCC(=O)N(C)c2ccccc2)cc1 | 4.35 |
| O=C(Cc1ccccc1)NC(c1ccco1)c1c(O)ccc2ccccc12 (stereo not shown) | 5.51 |
| O=C(NC1CCCCC1)c1ccccc1NC(=O)C1CC1 | -23.6 |
| COC(=O)c1cc(OC)c(OC)cc1NC(=O)c1cc(-c2ccccc2)nc2ccccc12.Cl | -9.64 |
